Results reported in the supplement of paper PMC9151546.
Repeats are few or missing, and single values can be far off.

How the values were obtained:
[1] = test system: CHO-K1; assay: micronucleus frequency (% of nucleated events); higher = more micronuclei (genotoxic)
[2] = test system: CHO-K1; assay: hypodiploid nuclei frequency (% of nucleated events); higher = more hypodiploid events (aneugenic)
Description: (§1)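 Flow-cytometric in vitro micronucleus assay (Litron MicroFlow) in CHO-K1 cells in 96-well plates, 19 concentrations (4.5-200 µM, n=1 per concentration). Without S9, cells were exposed for 24 h and sampled at 48 h. With Aroclor 1254-induced rat liver S9, cells were exposed for 3-4 h and sampled at 27-28 h. Read-outs are %MN and %hypodiploid nuclei relative to nucleated events, and relative survival as the nuclei-to-bead ratio versus the 1% DMSO vehicle control (x100).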

[3] = test system: CHO-K1; assay: relative survival (nuclei to bead ratio vs DMSO control) (% of vehicle control); higher = more surviving cells
Description: as §1
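Throughout, for hypodiploid nuclei frequency (% of nucleated events): hypodiploid nuclei gated on a flow cytometer with 488 nm excitation after SYTOX Green staining, cultures at 37 °C, positive controls vinblastine without S9 and cyclophosphamide with S9.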
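Throughout, for micronucleus frequency (% of nucleated events): cells lysed with nuclei stained by SYTOX Green, then micronucleus-gated events counted against nucleated events by flow cytometry with 488 nm excitation.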
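Throughout, for relative survival (nuclei to bead ratio vs DMSO control): Lysed-cell nuclei stained with SYTOX Green and counted against counting beads by flow cytometry at 488 nm excitation, with vinblastine (no S9) and cyclophosphamide (plus S9) as positive controls.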

C[C@]12CC[C@@H]3c4ccc(O)cc4C[C@@H](CCCCCCCCC[S+]([O-])CCCC(F)(F)C(F)(F)F)[C@H]3[C@@H]1CC[C@@H]2O (some centres not stated) [Fulvestrant]
Details	hypodiploid nuclei frequency, [2] [%]	micronucleus frequency, [1] [%]	relative survival, [3]
concentration: 2.79 (µM), S9 metabolic activation: with S9, exposure time: 3-4 hours	0.18	1.42	102
concentration: 2.79 (µM), S9 metabolic activation: without S9, exposure time: 24 hours	0.2	1.42	119
concentration: 3.49 (µM), S9 metabolic activation: with S9, exposure time: 3-4 hours	0.34	1.46	110
concentration: 3.49 (µM), S9 metabolic activation: without S9, exposure time: 24 hours	0.76	2.02	101
concentration: 4.36 (µM), S9 metabolic activation: with S9, exposure time: 3-4 hours	0.38	1.42	106
concentration: 4.36 (µM), S9 metabolic activation: without S9, exposure time: 24 hours	0.48	1.32	105
concentration: 5.45 (µM), S9 metabolic activation: with S9, exposure time: 3-4 hours	0.18	1.44	90.7
concentration: 5.45 (µM), S9 metabolic activation: without S9, exposure time: 24 hours	0.42	2.02	91.9
concentration: 6.8 (µM), S9 metabolic activation: with S9, exposure time: 3-4 hours	0.26	1.7	106
concentration: 6.8 (µM), S9 metabolic activation: without S9, exposure time: 24 hours	0.4	1.4	103
concentration: 8.5 (µM), S9 metabolic activation: with S9, exposure time: 3-4 hours	0.22	2	115
concentration: 8.5 (µM), S9 metabolic activation: without S9, exposure time: 24 hours	0.6	2.76	120
concentration: 10.7 (µM), S9 metabolic activation: with S9, exposure time: 3-4 hours	0.32	2.22	98.6
concentration: 10.7 (µM), S9 metabolic activation: without S9, exposure time: 24 hours	0.54	2.34	102
concentration: 13.3 (µM), S9 metabolic activation: with S9, exposure time: 3-4 hours	0.34	1.94	103
concentration: 13.3 (µM), S9 metabolic activation: without S9, exposure time: 24 hours	0.46	2.8	107
concentration: 16.6 (µM), S9 metabolic activation: with S9, exposure time: 3-4 hours	0.26	1.7	126
concentration: 16.6 (µM), S9 metabolic activation: without S9, exposure time: 24 hours	0.5	2.54	93.6
concentration: 20.8 (µM), S9 metabolic activation: with S9, exposure time: 3-4 hours	0.22	1.76	112
concentration: 20.8 (µM), S9 metabolic activation: without S9, exposure time: 24 hours	0.58	2.48	87.7
concentration: 26 (µM), S9 metabolic activation: with S9, exposure time: 3-4 hours	0.32	2.48	100
concentration: 26 (µM), S9 metabolic activation: without S9, exposure time: 24 hours	0.42	2.02	97
concentration: 32.5 (µM), S9 metabolic activation: with S9, exposure time: 3-4 hours	0.28	2	104
concentration: 32.5 (µM), S9 metabolic activation: without S9, exposure time: 24 hours	0.66	2.54	123
concentration: 40.6 (µM), S9 metabolic activation: with S9, exposure time: 3-4 hours	0.48	2.5	109
concentration: 40.6 (µM), S9 metabolic activation: without S9, exposure time: 24 hours	0.42	2.14	89.2
concentration: 50.8 (µM), S9 metabolic activation: with S9, exposure time: 3-4 hours	0.2	1.5	106
concentration: 50.8 (µM), S9 metabolic activation: without S9, exposure time: 24 hours	0.58	1.74	86.2
concentration: 63 (µM), S9 metabolic activation: with S9, exposure time: 3-4 hours	0.3	1.84	132
concentration: 63 (µM), S9 metabolic activation: without S9, exposure time: 24 hours	0.74	1.68	95.3
concentration: 79 (µM), S9 metabolic activation: with S9, exposure time: 3-4 hours	0.26	2.36	118
concentration: 79 (µM), S9 metabolic activation: without S9, exposure time: 24 hours	0.74	2.28	99.3
concentration: 99 (µM), S9 metabolic activation: with S9, exposure time: 3-4 hours	0.16	1.72	156
concentration: 99 (µM), S9 metabolic activation: without S9, exposure time: 24 hours	0.78	2.48	91.1
concentration: 124 (µM), S9 metabolic activation: with S9, exposure time: 3-4 hours	0.42	1.78	121
concentration: 124 (µM), S9 metabolic activation: without S9, exposure time: 24 hours	0.84	3.04	78.2

CN(C)c1ccc(C(=C2C=CC(=[N+](C)C)C=C2)c2ccc(N(C)C)cc2)cc1 [Gentian Violet]
Details	hypodiploid nuclei frequency, [2] [%]	micronucleus frequency, [1] [%]	relative survival, [3]
concentration: 0.108 (µM), S9 metabolic activation: with S9, exposure time: 3-4 hours	0.14	1.26	140
concentration: 0.108 (µM), S9 metabolic activation: without S9, exposure time: 24 hours	1.02	2.36	55.3
concentration: 0.135 (µM), S9 metabolic activation: with S9, exposure time: 3-4 hours	0.26	1.58	129
concentration: 0.135 (µM), S9 metabolic activation: without S9, exposure time: 24 hours	1.04	2.5	59
concentration: 0.169 (µM), S9 metabolic activation: with S9, exposure time: 3-4 hours	0.32	1.5	132
concentration: 0.169 (µM), S9 metabolic activation: without S9, exposure time: 24 hours	1.54	2.86	54.8
concentration: 0.211 (µM), S9 metabolic activation: with S9, exposure time: 3-4 hours	0.22	1.76	124
concentration: 0.211 (µM), S9 metabolic activation: without S9, exposure time: 24 hours	1.74	2.98	54.6
concentration: 0.264 (µM), S9 metabolic activation: with S9, exposure time: 3-4 hours	0.28	1.68	125
concentration: 0.264 (µM), S9 metabolic activation: without S9, exposure time: 24 hours	3.04	3.46	44.7
concentration: 0.33 (µM), S9 metabolic activation: with S9, exposure time: 3-4 hours	0.5	1.98	92.7
concentration: 0.33 (µM), S9 metabolic activation: without S9, exposure time: 24 hours	3.12	3.64	40.7
concentration: 0.412 (µM), S9 metabolic activation: with S9, exposure time: 3-4 hours	0.4	1.66	69.4
concentration: 0.412 (µM), S9 metabolic activation: without S9, exposure time: 24 hours	–	–	34
concentration: 0.515 (µM), S9 metabolic activation: with S9, exposure time: 3-4 hours	0.44	2.28	70.6
concentration: 0.515 (µM), S9 metabolic activation: without S9, exposure time: 24 hours	–	–	34.7
concentration: 0.644 (µM), S9 metabolic activation: with S9, exposure time: 3-4 hours	0.56	1.58	81.4
concentration: 0.644 (µM), S9 metabolic activation: without S9, exposure time: 24 hours	1.08	1.4	40.2
concentration: 0.805 (µM), S9 metabolic activation: with S9, exposure time: 3-4 hours	0.82	2	66.3
concentration: 0.805 (µM), S9 metabolic activation: without S9, exposure time: 24 hours	–	–	22.6
concentration: 1.01 (µM), S9 metabolic activation: with S9, exposure time: 3-4 hours	0.6	2.16	74.9
concentration: 1.01 (µM), S9 metabolic activation: without S9, exposure time: 24 hours	–	–	9.27
concentration: 1.26 (µM), S9 metabolic activation: with S9, exposure time: 3-4 hours	1.16	3.22	62.5
concentration: 1.26 (µM), S9 metabolic activation: without S9, exposure time: 24 hours	–	–	8.52
concentration: 1.57 (µM), S9 metabolic activation: with S9, exposure time: 3-4 hours	1.23	6.34	52.4
concentration: 1.57 (µM), S9 metabolic activation: without S9, exposure time: 24 hours	–	–	5.16
concentration: 1.97 (µM), S9 metabolic activation: with S9, exposure time: 3-4 hours	–	–	37.7
concentration: 1.97 (µM), S9 metabolic activation: without S9, exposure time: 24 hours	–	–	0.01
concentration: 2.46 (µM), S9 metabolic activation: with S9, exposure time: 3-4 hours	–	–	36.2
concentration: 3.07 (µM), S9 metabolic activation: with S9, exposure time: 3-4 hours	–	–	15.7
concentration: 3.84 (µM), S9 metabolic activation: with S9, exposure time: 3-4 hours	–	–	4.32

OCC1CO1 (configuration not stated) [Glycidol]
Details	hypodiploid nuclei frequency, [2] [%]	micronucleus frequency, [1] [%]	relative survival, [3]
concentration: 4.5 (µM), S9 metabolic activation: with S9, exposure time: 3-4 hours	0.24	1.04	87.4
concentration: 4.5 (µM), S9 metabolic activation: without S9, exposure time: 24 hours	0.68	0.96	103
concentration: 5.63 (µM), S9 metabolic activation: with S9, exposure time: 3-4 hours	0.08	0.86	131
concentration: 5.63 (µM), S9 metabolic activation: without S9, exposure time: 24 hours	0.78	1.34	102
concentration: 7.04 (µM), S9 metabolic activation: with S9, exposure time: 3-4 hours	0.12	0.78	113
concentration: 7.04 (µM), S9 metabolic activation: without S9, exposure time: 24 hours	0.96	1.7	93.9
concentration: 8.8 (µM), S9 metabolic activation: with S9, exposure time: 3-4 hours	0.28	1.66	115
concentration: 8.8 (µM), S9 metabolic activation: without S9, exposure time: 24 hours	0.8	1.28	109
concentration: 11 (µM), S9 metabolic activation: with S9, exposure time: 3-4 hours	0.26	1.7	112
concentration: 11 (µM), S9 metabolic activation: without S9, exposure time: 24 hours	0.98	1.42	104
concentration: 13.7 (µM), S9 metabolic activation: with S9, exposure time: 3-4 hours	0.24	1.78	105
concentration: 13.7 (µM), S9 metabolic activation: without S9, exposure time: 24 hours	0.94	1.3	102
concentration: 17.2 (µM), S9 metabolic activation: with S9, exposure time: 3-4 hours	0.3	1.76	120
concentration: 17.2 (µM), S9 metabolic activation: without S9, exposure time: 24 hours	0.72	1.3	91.4
concentration: 21.5 (µM), S9 metabolic activation: with S9, exposure time: 3-4 hours	0.2	1	97.2
concentration: 21.5 (µM), S9 metabolic activation: without S9, exposure time: 24 hours	0.56	1.52	101
concentration: 26.8 (µM), S9 metabolic activation: with S9, exposure time: 3-4 hours	0.28	0.8	117
concentration: 26.8 (µM), S9 metabolic activation: without S9, exposure time: 24 hours	1.62	2.2	121
concentration: 33.6 (µM), S9 metabolic activation: with S9, exposure time: 3-4 hours	0.26	0.96	94.5
concentration: 33.6 (µM), S9 metabolic activation: without S9, exposure time: 24 hours	2.02	1.62	104
concentration: 41.9 (µM), S9 metabolic activation: with S9, exposure time: 3-4 hours	0.28	0.68	95.8
concentration: 41.9 (µM), S9 metabolic activation: without S9, exposure time: 24 hours	1.3	1.36	100
concentration: 52.4 (µM), S9 metabolic activation: with S9, exposure time: 3-4 hours	0.4	1.12	92.2
concentration: 52.4 (µM), S9 metabolic activation: without S9, exposure time: 24 hours	1.36	1.32	111
concentration: 65.5 (µM), S9 metabolic activation: with S9, exposure time: 3-4 hours	0.32	1.18	100
concentration: 65.5 (µM), S9 metabolic activation: without S9, exposure time: 24 hours	0.98	1.6	118
concentration: 81.9 (µM), S9 metabolic activation: with S9, exposure time: 3-4 hours	0.14	1.02	109
concentration: 81.9 (µM), S9 metabolic activation: without S9, exposure time: 24 hours	1.2	2	104
concentration: 102 (µM), S9 metabolic activation: with S9, exposure time: 3-4 hours	0.24	1.44	100
concentration: 102 (µM), S9 metabolic activation: without S9, exposure time: 24 hours	1.14	1.66	96.3
concentration: 128 (µM), S9 metabolic activation: with S9, exposure time: 3-4 hours	0.26	1	112
concentration: 128 (µM), S9 metabolic activation: without S9, exposure time: 24 hours	0.96	1.54	96.3
concentration: 160 (µM), S9 metabolic activation: with S9, exposure time: 3-4 hours	0.2	1.58	107
concentration: 160 (µM), S9 metabolic activation: without S9, exposure time: 24 hours	1.3	2.3	132
concentration: 200 (µM), S9 metabolic activation: with S9, exposure time: 3-4 hours	0.26	1.02	105
concentration: 200 (µM), S9 metabolic activation: without S9, exposure time: 24 hours	1.06	1.96	121
